Source: the supplement of paper PMC3334620
In all, about 33,000 sequences were measured (“E-score (-0.5 to 0.5)”: median about -0.011, highest 2% from about 0.28 on). The list shows a part of the results.

Biological target: T1, Gcr1 (UniProt P07261)
T1 sequence: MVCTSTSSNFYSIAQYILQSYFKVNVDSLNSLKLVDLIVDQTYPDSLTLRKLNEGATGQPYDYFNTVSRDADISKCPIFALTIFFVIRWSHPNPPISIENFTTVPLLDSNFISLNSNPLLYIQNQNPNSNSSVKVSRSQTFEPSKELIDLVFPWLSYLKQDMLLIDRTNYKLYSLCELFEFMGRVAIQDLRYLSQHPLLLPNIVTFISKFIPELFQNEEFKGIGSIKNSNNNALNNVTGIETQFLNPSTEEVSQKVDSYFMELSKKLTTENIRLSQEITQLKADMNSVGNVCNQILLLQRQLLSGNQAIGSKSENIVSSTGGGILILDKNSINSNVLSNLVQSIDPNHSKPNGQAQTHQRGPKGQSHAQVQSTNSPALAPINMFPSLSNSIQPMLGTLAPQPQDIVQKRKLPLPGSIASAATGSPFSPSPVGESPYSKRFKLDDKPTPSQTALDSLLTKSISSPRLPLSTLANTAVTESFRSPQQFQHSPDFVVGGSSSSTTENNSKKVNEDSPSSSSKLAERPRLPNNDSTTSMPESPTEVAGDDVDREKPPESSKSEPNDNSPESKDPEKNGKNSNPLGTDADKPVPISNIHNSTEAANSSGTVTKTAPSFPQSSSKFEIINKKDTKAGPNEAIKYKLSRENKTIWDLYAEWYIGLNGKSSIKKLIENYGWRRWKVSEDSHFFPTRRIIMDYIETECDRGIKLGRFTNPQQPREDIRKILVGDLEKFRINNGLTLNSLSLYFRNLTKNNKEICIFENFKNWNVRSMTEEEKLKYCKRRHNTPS
Experiment: PBM E-score (8-mer binding enrichment) (E-score (-0.5 to 0.5)); higher = stronger / more preferred TF binding; most listed sequences are background and not binding sites
Details: protein concentration: 100 nM; construct: GST-full length
Method in brief: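 Masliner-normalised scans of fluorescent anti-GST signal were the basis for scoring. That signal came from GST-tagged yeast transcription factors applied at about 100-200 nM to double-stranded universal all-10-mer Agilent arrays on fresh or once-stripped slides. Each ungapped eight-base word, pooled with its reverse complement, received an E-score from the Universal PBM Analysis Suite.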

Sequence | PBM E-score
GGCCCTCA | -0.156
AGCCCTGG | -0.154
GCCACTAC | 0.305
ACACATTA | 0.0504
ACGCATAA | 0.126
AGGGGGTA | -0.298
AGCTGGCA | 0.0163
CCTTGCGA | -0.079
AAACTGGC | 0.0254
ATCAGAAC | 0.0381
GCAACGGC | 0.103
ATACGGGG | 0.101
CTTTCGAC | -0.159
AGTCGGAG | -0.0325
GGCACGTA | -0.05
ACTTTCAC | 0.0906
CAACCGTC | -0.0544
AACACACT | -0.224
CCTAGCGC | -0.241
AGTGCATG | -0.0492
ATATCGCC | -0.0646
GCCTTCAA | -0.132
TAGCCAAA | 0.0476
ATATTGCA | 0.0981
CTCTAGTC | -0.254

Sequence | PBM E-score
TGACCCAA | -0.0898
ATTATACC | 0.161
GTTTGATA | 0.217
CGCAATTA | -0.00265
AAAGTACG | 0.109
GTCATACA | -0.0119
AATAGTAG | 0.134
ACAAAGCT | 0.0432
GTCGGCTA | -0.0337
GGATCGTA | 0.0973
CCATTGAA | 0.0432
CTATCAGC | -0.02
ACACTCCA | -0.0825
GGATCTAA | 0.136
CGCTTACG | -0.116
ATTACGTG | -0.0622
GAGGGATA | -0.201
CTAACCCC | -0.149
AGACGGCG | 0.0416
CTCATGAC | -0.175
AACTAGCG | -0.046
AATCTGTG | -0.0578
AGGCGTGG | -0.0766
AACCAGTC | -0.0791
CCAAGCAG | 0.125

Sequence | PBM E-score
CTTGACTA | -0.323
AGCTGGAA | 0.226
CCGAAACA | 0.162
ACACGTCA | -0.2
ATTCCTCA | 0.144
ATAGATAG | -0.199
ACGCACAT | -0.0534
TACGGGCA | 0.166
CTCGCGAC | -0.171
CCAAGACA | -0.0148
AGTATCAT | -0.118
AGTCTTTA | -0.275
GAAGACGA | 0.198
ACGTTGCA | -0.015
ATTCGAAT | 0.0645
ATGCCGAA | 0.109
CCACCCTC | -0.00165
CCCAGGAA | 0.158
CTTGGCTA | -0.0897
AACCTGTA | 0.211
AGTGGACG | 0.315
ACTATTTG | 0.0391
GACCCCGC | -0.143
AACCACAA | 0.213
GCGCCTTA | 0.0139

Sequence | PBM E-score
AGGTACAA | -0.0348
CGAAGCCA | 0.272
ATTCCGAC | 0.0519
CGACAGAC | -0.0432
CGGAGGCA | 0.0696
AAATCTCT | 0.153
GTAACTAC | 0.0084
AACTAGGT | 0.15
CCTGGACG | 0.0441
ACGCAATC | 0.0168
ACGTTCCA | -0.00347
AATGACTG | -0.00859
AACTGAGG | -0.00704
GGTGAACA | -0.0564
AGCAATTA | 0.0255
ACCAGATA | 0.0838
AGACTAAT | 0.0195
TAGAGTGA | 0.0444
CATGTAAC | 0.0723
ACCTGCTC | -0.0301
CCCCACTC | 0.152
AGCTGGCG | 0.00555
GCAATTCA | -0.221
GAGCCGTA | 0.0183
CGCACGTC | -0.0974

Sequence | PBM E-score
CACCAATA | 0.167
CTGGGGTC | 0.0575
CGCTATTA | 0.168
AGGTATCG | 0.019
AAGTCTAT | 0.0558
CATTTGGG | 0.216
CAAAGGAA | 0.104
ACCGTCAC | -0.219
CTTAGGCA | -0.0505
TATGCGAA | 0.0856
CGTTGTAG | -0.147
AACGCTTA | -0.126
GACATCTC | -0.116
AAGAGGTA | -0.13
AAGCCAGT | -0.0499
AGTCGATG | -0.0398
ATCGCTCG | 0.09
ACTACACT | -0.0164
ACGATAAC | 0.0529
ACTGGAAC | 0.301
TTTATAAA | 0.142
AATCCCTG | 0.167
TGGACACA | -0.0955
GCAGGGTA | -0.111
ATGAGGTG | -0.0423

Sequence | PBM E-score
GTGGCCAC | -0.0489
GACGGTGC | -0.0434
AGCGTTGA | -0.381
GAGGCAAA | -0.049
AAGACGAG | -0.267
ATGTCACG | 0.0881
CGATGATC | -0.106
ACTCGCGG | -0.102
AGGGAGGC | -0.116
CCTAGCGA | -0.154
ATTATAAA | 0.0621
GAGGTTGA | 0.0451
ACTGCATC | -0.111
CGGTTAAA | -0.039
GCAGAGAC | -0.0616
GAGTACGC | -0.259
TTGAGCAA | -0.0965
AAGCCCCG | 0.129
AATTTGAC | 0.0583
GACTCAGA | -0.127
CAGACCAC | -0.158
TACCGAGA | 0.027
ACCACCGA | -0.191
CGACAAAA | 0.213
CTGGACAA | -0.0593

Sequence | PBM E-score
CAACCCAG | 0.00319
AACCTTGG | -0.0368
CGCATTAA | 0.0367
CCTCCTGC | -0.0964
ACCATCTC | -0.0298
CCCTCACA | -0.208
CCGATACC | 0.0297
TCCAGAGA | -0.0181
TCAATAAA | 0.0698
CTTTTGGA | 0.194
AGAGGACC | -0.188
GGTTTTGA | -0.194
GGTTCAGA | -0.0928
AGTGCGAT | 0.142
TCTGCCCA | -0.249
CGAACAAA | -0.0237
TATTCGCA | 0.144
GTATCGAA | 0.115
CTTTTCGA | -0.00691
GCATGGTA | 0.103
AAAGAACT | -0.182
CTTCACGA | -0.0926
